In the supplement of paper PMC11741623:
The other results are listed elsewhere or left out. Interaction screen of human proteins with wild-type SARS-CoV-2 proteins by split-DHFR complementation in yeast, 1 µg/mL methotrexate. Value = fitness of the pair (three or more lineages) minus that of the viral protein without a human partner, on a scale set by negative (0) and fused positive (1) controls, mean of up to three cultures; higher = more likely to interact. Active = false discovery rate below 0.05 (one-sided t-test) in at least one culture. Nearly all pairs are not hits, and differences among them are mostly noise (correlation between cultures about 0.3); most hits were seen in one culture only. Human sequences are the Swiss-Prot entries looked up by gene name; the clone may be another isoform. NSP2 values were corrected by the authors for a growth advantage. Listed are human proteins with a hit and a random twelfth of the others.

B1: SURF1, Q15526 (protein)
chain: MAAVAALQLGLRAAGLGRAPASAAWRSVLRVSPRPGVAWRPSRCGSSAAEASATKAEDDSFLQWVLLLIPVTAFGLGTWQVQRRKWKLNLIAELESRVLAEPVPLPADPMELKNLEYRPVKVRGCFDHSKELYMMPRTMVDPVREAREGGLISSSTQSGAYVVTPFHCTDLGVTILVNRGFVPRKKVNPETRQKGQIEGEVDLIGMVRLTETRQPFVPENNPERNHWHYRDLEAMARITGAEPIFIDANFQSTVPGGPIGGQTRVTLRNEHLQYIVTWYGLSAATSYLWFKKFLRGTPGV
B2: RNF144A, P50876 (protein)
chain: MTTTRYRPTWDLALDPLVSCKLCLGEYPVEQMTTIAQCQCIFCTLCLKQYVELLIKEGLETAISCPDAACPKQGHLQENEIECMVAAEIMQRYKKLQFEREVLFDPCRTWCPASTCQAVCQLQDVGLQTPQPVQCKACRMEFCSTCKASWHPGQGCPETMPITFLPGETSAAFKMEEDDAPIKRCPKCKVYIERDEGCAQMMCKNCKHAFCWYCLESLDDDFLLIHYDKGPCRNKLGHSRASVIWHRTQVVGIFAGFGLLLLVASPFLLLATPFVLCCKCKCSKGDDDPLPT
B3: TIMM23, O14925 (protein)
chain: MEGGGGSGNKTTGGLAGFFGAGGAGYSHADLAGVPLTGMNPLSPYLNVDPRYLVQDTDEFILPTGANKTRGRFELAFFTIGGCCMTGAAFGAMNGLRLGLKETQNMAWSKPRNVQILNMVTRQGALWANTLGSLALLYSAFGVIIEKTRGAEDDLNTVAAGTMTGMLYKCTGGLRGIARGGLTGLTLTSLYALYNNWEHMKGSLLQQSL
B4: SCMH1, Q96GD3 (protein)
chain: MLVCYSVLACEILWDLPCSIMGSPLGHFTWDKYLKETCSVPAPVHCFKQSYTPPSNEFKISMKLEAQDPRNTTSTCIATVVGLTGARLRLRLDGSDNKNDFWRLVDSAEIQPIGNCEKNGGMLQPPLGFRLNASSWPMFLLKTLNGAEMAPIRIFHKEPPSPSHNFFKMGMKLEAVDRKNPHFICPATIGEVRGSEVLVTFDGWRGAFDYWCRFDSRDIFPVGWCSLTGDNLQPPGTKVVIPKNPYPASDVNTEKPSIHSSTKTVLEHQPGQRGRKPGKKRGRTPKTLISHPISAPSKTAEPLKFPKKRGPKPGSKRKPRTLLNPPPASPTTSTPEPDTSTVPQDAATIPSSAMQAPTVCIYLNKNGSTGPHLDKKKVQQLPDHFGPARASVVLQQAVQACIDCAYHQKTVFSFLKQGHGGEVISAVFDREQHTLNLPAVNSITYVLRFLEKLCHNLRSDNLFGNQPFTQTHLSLTAIEYSHSHDRYLPGETFVLGNSLARSLEPHSDSMDSASNPTNLVSTSQRHRPLLSSCGLPPSTASAVRRLCSRGVLKGSNERRDMESFWKLNRSPGSDRYLESRDASRLSGRDPSSWTVEDVMQFVREADPQLGPHADLFRKHEIDGKALLLLRSDMMMKYMGLKLGPALKLSYHIDRLKQGKF
B5: SLC31A2, O15432 (protein)
chain: MAMHFIFSDTAVLLFDFWSVHSPAGMALSVLVLLLLAVLYEGIKVGKAKLLNQVLVNLPTSISQQTIAETDGDSAGSDSFPVGRTHHRWYLCHFGQSLIHVIQVVIGYFIMLAVMSYNTWIFLGVVLGSAVGYYLAYPLLSTA
B6: TOMM34, Q15785 (protein)
chain: MAPKFPDSVEELRAAGNESFRNGQYAEASALYGRALRVLQAQGSSDPEEESVLYSNRAACHLKDGNCRDCIKDCTSALALVPFSIKPLLRRASAYEALEKYPMAYVDYKTVLQIDDNVTSAVEGINRMTRALMDSLGPEWRLKLPSIPLVPVSAQKRWNSLPSENHKEMAKSKSKETTATKNRVPSAGDVEKARVLKEEGNELVKKGNHKKAIEKYSESLLCSNLESATYSNRALCYLVLKQYTEAVKDCTEALKLDGKNVKAFYRRAQAHKALKDYKSSFADISNLLQIEPRNGPAQKLRQEVKQNLH
B7: TMEM252, Q8N6L7 (protein)
chain: MQNRTGLILCALALLMGFLMVCLGAFFISWGSIFDCQGSLIAAYLLLPLGFVILLSGIFWSNYRQVTESKGVLRHMLRQHLAHGALPVATVDRPDFYPPAYEESLEVEKQSCPAEREASGIPPPLYTETGLEFQDGNDSHPEAPPSYRESIAGLVVTAISEDAQRRGQEC
B8: TREML2, Q5T2D2 (protein)
chain: MAPAFLLLLLLWPQGCVSGPSADSVYTKVRLLEGETLSVQCSYKGYKNRVEGKVWCKIRKKKCEPGFARVWVKGPRYLLQDDAQAKVVNITMVALKLQDSGRYWCMRNTSGILYPLMGFQLDVSPAPQTERNIPFTHLDNILKSGTVTTGQAPTSGPDAPFTTGVMVFTPGLITLPRLLASTRPASKTGYSFTATSTTSQGPRRTMGSQTVTASPSNARDSSAGPESISTKSGDLSTRSPTTGLCLTSRSLLNRLPSMPSIRHQDVYSTVLGVVLTLLVLMLIMVYGFWKKRHMASYSMCSDPSTRDPPGRPEPYVEVYLI

Experiments:
Experiment in all cases: yeast fitness gain over the viral ORF with no human partner (scaled fitness); higher = more likely to interact
[1] = biological target: SARS-CoV-2 E
Procedure: (§1)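 Split mouse DHFR complementation in pooled diploid yeast: human ORFeome clones carry one fragment and viral ORFs the other; barcoded lineages compete in 1 µg/mL methotrexate and fitness is read by barcode sequencing in up to three cultures.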

[2] = biological target: SARS-CoV-2 N
Procedure: as §1

[3] = biological target: SARS-CoV-2 NSP1
Procedure: as §1

[4] = biological target: SARS-CoV-2 NSP16
Procedure: as §1

[5] = biological target: SARS-CoV-2 NSP8
Procedure: as §1

[6] = biological target: SARS-CoV-2 NSP9
Procedure: as §1

[7] = biological target: SARS-CoV-2 ORF3A
Procedure: as §1

[8] = biological target: SARS-CoV-2 ORF9Bwu (the 73-codon ORF)
Procedure: as §1

[9] = biological target: SARS-CoV-2 M
Procedure: as §1

[10] = biological target: SARS-CoV-2 NSP10
Procedure: as §1

[11] = biological target: SARS-CoV-2 NSP12
Procedure: as §1

[12] = biological target: SARS-CoV-2 NSP13
Procedure: as §1

[13] = biological target: SARS-CoV-2 NSP14
Procedure: as §1

[14] = biological target: SARS-CoV-2 NSP15
Procedure: as §1

[15] = biological target: SARS-CoV-2 NSP2
Procedure: as §1

[16] = biological target: SARS-CoV-2 NSP4
Procedure: as §1

[17] = biological target: SARS-CoV-2 NSP5
Procedure: as §1

[18] = biological target: SARS-CoV-2 NSP6
Procedure: as §1

[19] = biological target: SARS-CoV-2 NSP7
Procedure: as §1

[20] = biological target: SARS-CoV-2 ORF10
Procedure: as §1

[21] = biological target: SARS-CoV-2 ORF3B
Procedure: as §1

[22] = biological target: SARS-CoV-2 ORF6
Procedure: as §1

[23] = biological target: SARS-CoV-2 ORF7A
Procedure: as §1

[24] = biological target: SARS-CoV-2 ORF7B
Procedure: as §1

[25] = biological target: SARS-CoV-2 ORF8
Procedure: as §1

[26] = biological target: SARS-CoV-2 ORF9B
Procedure: as §1

[27] = biological target: SARS-CoV-2 S
Procedure: as §1

Binder | yeast fitness gain [1] | yeast fitness gain [2] | yeast fitness gain [3] | yeast fitness gain [4] | yeast fitness gain [5] | yeast fitness gain [6] | yeast fitness gain [7] | yeast fitness gain [8] | yeast fitness gain [9] | yeast fitness gain [10] | yeast fitness gain [11] | yeast fitness gain [12] | yeast fitness gain [13] | yeast fitness gain [14] | yeast fitness gain [15] | yeast fitness gain [16] | yeast fitness gain [17] | yeast fitness gain [18] | yeast fitness gain [19] | yeast fitness gain [20] | yeast fitness gain [21] | yeast fitness gain [22] | yeast fitness gain [23] | yeast fitness gain [24] | yeast fitness gain [25] | yeast fitness gain [26] | yeast fitness gain [27]
B1 | inactive: -0.0532 | inactive: -0.0112 | inactive: -0.00343 | inactive: 0.0122 | inactive: 0.0415 | inactive: 0.0728 | inactive: 0.00529 | inactive: 0.0161 | – | – | – | – | – | – | – | – | – | – | – | – | – | – | – | – | – | – | –
B2 | inactive: 0.103 | inactive: 0.0194 | inactive: -0.028 | inactive: 0.0763 | inactive: -0.00801 | inactive: -0.0344 | inactive: -0.0429 | – | inactive: 0.0102 | inactive: -0.0573 | inactive: -0.0866 | inactive: -0.0204 | inactive: -0.369 | inactive: 0.11 | inactive: -0.244 | inactive: -0.264 | inactive: -0.0279 | inactive: 0.0507 | inactive: -0.00587 | inactive: 0.000783 | inactive: -0.0233 | inactive: -0.00304 | inactive: 0.0166 | inactive: -0.0191 | inactive: -0.0374 | inactive: 0.0308 | inactive: 0.0405
B3 | inactive: 0.0661 | inactive: -0.0452 | inactive: -0.00658 | inactive: 0.0633 | inactive: -0.00244 | inactive: 0.0778 | inactive: -0.0688 | inactive: 0.0886 | inactive: 0.00501 | inactive: 0.0277 | inactive: -0.0617 | inactive: 0.0196 | inactive: -0.133 | inactive: 0.0476 | inactive: -0.0676 | inactive: -0.0458 | inactive: -0.0159 | inactive: 0.0177 | inactive: 0.00903 | inactive: 0.0115 | inactive: 0.0469 | inactive: 0.0476 | inactive: 0.0085 | inactive: 0.0345 | inactive: 0.00904 | inactive: 0.0158 | inactive: 0.0352
B4 | inactive: 0.137 | inactive: -0.0539 | inactive: -0.0665 | inactive: 0.0259 | inactive: -0.0793 | inactive: 0.00541 | inactive: -0.0297 | inactive: -0.0154 | inactive: 0.0189 | inactive: -0.00813 | inactive: 0.0518 | inactive: 0.0125 | – | inactive: 0.0705 | inactive: -0.161 | – | inactive: 0.00652 | inactive: 0.0269 | inactive: -0.0759 | inactive: -0.0456 | inactive: 0.0137 | inactive: -0.0132 | inactive: 0.00601 | inactive: 0.00801 | inactive: 0.028 | inactive: 0.0272 | inactive: 0.0405
B5 | inactive: 0.00729 | – | inactive: -0.188 | inactive: 0.0654 | inactive: -0.0196 | inactive: -0.314 | inactive: -0.0606 | inactive: 0.015 | inactive: 0.0379 | inactive: -0.038 | inactive: -0.0209 | inactive: 0.0322 | – | inactive: 0.143 | inactive: -0.0572 | inactive: 0.114 | – | inactive: 0.026 | inactive: 0.0508 | inactive: 0.0197 | inactive: 0.0436 | inactive: 0.0565 | inactive: 0.0207 | inactive: 0.124 | inactive: 0.0156 | inactive: -0.0407 | inactive: 0.0712
B6 | inactive: 0.0807 | inactive: 0.184 | inactive: 0.031 | inactive: 0.023 | inactive: 0.0828 | inactive: -0.109 | inactive: 0.101 | inactive: -0.0658 | inactive: -0.000551 | inactive: 0.0251 | inactive: 0.0334 | inactive: -0.0418 | inactive: 0.0296 | inactive: 0.0764 | active: 0.216 | inactive: -0.00023 | inactive: 0.00349 | inactive: 0.0269 | inactive: -0.0165 | inactive: 0.0165 | inactive: 0.0319 | inactive: 0.0299 | inactive: 0.0174 | inactive: -0.00317 | inactive: 0.0287 | inactive: 0.0346 | inactive: 0.0322
B7 | inactive: -0.00477 | – | inactive: 0.0312 | inactive: 0.00957 | inactive: 0.0434 | inactive: 0.0586 | inactive: 0.111 | inactive: 0.0262 | inactive: 0.0741 | inactive: 0.0496 | inactive: 0.0417 | inactive: -0.0112 | inactive: 0.0284 | inactive: -0.0491 | inactive: -0.0504 | inactive: 0.0144 | inactive: 0.00499 | inactive: 0.065 | inactive: 0.00323 | inactive: 0.0285 | inactive: 0.0314 | inactive: -0.062 | inactive: -0.054 | inactive: 0.0423 | inactive: 0.0591 | inactive: 0.0382 | inactive: 0.0241
B8 | inactive: 0.0842 | – | inactive: -0.0999 | inactive: 0.0494 | inactive: 0.0038 | inactive: -0.128 | inactive: -0.0699 | inactive: -0.0407 | inactive: 0.0629 | inactive: -0.00404 | inactive: 0.0675 | inactive: 0.0332 | inactive: -0.375 | inactive: 0.0592 | inactive: -0.113 | – | inactive: 0.0411 | inactive: 0.0669 | inactive: 0.113 | inactive: 0.0221 | inactive: -0.017 | inactive: -0.0389 | inactive: 0.0417 | inactive: 0.0406 | inactive: -0.0166 | inactive: 0.0244 | inactive: 0.0277
